Hit rate of the full screen: of about 230,000 compounds, about 3,600 (1.6%) were called active. Inconclusive results, whose numbers are uncertain, are shown with a selection of clear calls. The call rests on the fitted dose curve; in most records, active means well fitted inhibition curve with a large enough effect (not every such curve was filed as active); inconclusive means small, poorly fitted or top-dose-only effect, or another doubt; inactive means no such curve, though single readings can be large or run the other way. Potencies beside an inconclusive call are fits to weak or partial responses and may not hold up. *1 amine or outer side, *2 acyl side, *3 side chain or, on linkers, in order; H or OH if unused. Where a SMILES comes first, the peptide text is derived from it. Bridges are numbered along the chain shown (N, C = ends). Roman numbers before positions name the chains, in order. [ ]: non-standard residue; d: D form. Actinocin(9to1) = Cc1c2oc3c(C)ccc(C(=O)[*:1])c3nc-2c(C(=O)[*:2])c(N)c1=O; aThr = C[C@H](O)[C@H](N)C(=O)O; NMeV = CN[C@H](C(=O)O)C(C)C; Sar = CNCC(=O)O
molecular target: Lysine-specific demethylase 4E (Homo sapiens) (UniProt B2RXH2); assay: qHTS Assay for Inhibitors of Human Jumonji Domain Containing 2E (JMJD2E); details: JMJD2E catalytic domain, FDH-coupled NADH fluorescence (FDH is formaldehyde dehydrogenase); series mostly up to 57.1 µM
Further: nearly all actives have a fitted effect of over 50% in size.
Potency means the concentration at half of the fitted maximal effect; tags describe the fitted curve by direction and shape.
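Wherever activity change, negative = inhibition is given: 0% = wells with enzyme and -100% = buffer wells without enzyme.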

Sequence of UniProt B2RXH2 (B2RXH2 whole entry, looked up, the tested form may be a part): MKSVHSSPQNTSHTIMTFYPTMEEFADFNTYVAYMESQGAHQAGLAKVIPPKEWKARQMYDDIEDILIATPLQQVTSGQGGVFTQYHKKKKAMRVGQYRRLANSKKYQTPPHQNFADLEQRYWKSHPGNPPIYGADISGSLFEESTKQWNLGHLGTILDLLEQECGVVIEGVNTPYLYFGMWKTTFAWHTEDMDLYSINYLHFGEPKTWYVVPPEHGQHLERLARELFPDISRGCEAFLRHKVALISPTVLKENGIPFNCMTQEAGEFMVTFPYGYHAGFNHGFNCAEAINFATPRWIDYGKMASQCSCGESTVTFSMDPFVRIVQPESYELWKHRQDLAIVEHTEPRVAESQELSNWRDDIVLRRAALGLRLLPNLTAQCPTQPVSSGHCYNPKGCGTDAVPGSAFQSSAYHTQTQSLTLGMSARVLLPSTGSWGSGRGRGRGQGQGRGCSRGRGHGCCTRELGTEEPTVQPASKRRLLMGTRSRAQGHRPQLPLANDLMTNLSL

| Structure (SMILES) | Potency | activity change, negative = inhibition |
| --- | --- | --- |
| Cc1c2oc3c(C)ccc(C(=O)N[C@@H]4C(=O)N[C@@H](C(C)C)C(=O)N5CCC[C@@H]5C(=O)N(C)CC(=O)N(C)[C@@H](C(C)C)C(=O)O[C@H]4C)c3nc-2c(C(=O)N[C@@H]2C(=O)N[C@@H](C(C)C)C(=O)N3CCC[C@@H]3C(=O)N(C)CC(=O)N(C)[C@@H](C(C)C)C(=O)O[C@H]2C)c(N)c1=O (I: [aThr]V[dP][Sar][NMeV] / II: [aThr]V[dP][Sar][NMeV]; ester I:1-I:C, II:1-II:C; linker I:N-II:N via Actinocin(9to1)) | inconclusive: 28.2 µM [inhibitor, partial curve] |  |
| C[C@H]1Cc2c(COc3ccccc3)nc3c(c2CO1)CN(C(=O)Cc1cccs1)CC3 |  | inactive: -3.6% [at 11.4 µM] |
| COc1ccc(NC(=S)Nc2ccccc2Cl)cn1 | inconclusive: 20 µM [inhibitor, single point] |  |
| CCCNc1ncccc1C(N)=O | inconclusive: 35.5 µM [inhibitor, partial curve] |  |
| O=C(NCc1cccnc1)c1cn(-c2ccccc2)nc1-c1ccccc1 | inactive |  |
| COc1ccc2nc(Nc3nc4cc5c(cc4s3)OCO5)sc2c1 | inconclusive: 28.2 µM [inhibitor, single point] |  |
| COc1ccc(CN2CCN(C(=O)C3CCC(CNS(=O)(=O)c4ccccc4)CC3)CC2)c(OC)c1OC (configuration not stated) | inactive |  |
| COc1ccc(C(=O)Nc2nc3nccc(-c4ccccc4)n3n2)cc1 | inconclusive: 39.8 µM [inhibitor, single point] |  |
| COc1ccc(S(=O)(=O)N2CC(C(=O)O)Oc3ccc(CC(=O)O)cc32)cc1 (configuration not stated) | inactive |  |
| O=C(CSc1nnc(-c2ccccc2)n1C1CCCCC1)Nc1ccc(S(=O)(=O)Nc2ccccn2)cc1 | inconclusive: 28.2 µM [inhibitor, partial curve] |  |
| COc1cc2[nH]c(=S)nc(NCc3cccs3)c2cc1OC | inactive |  |
| CCC(=O)Nc1cc2c(C)cc(=O)oc2cc1C | inconclusive: 31.6 µM [inhibitor, partial curve] |  |
| COC(=O)N1[C@H](C)C=C[C@]1(Cc1ccccc1)C(=O)NCc1ccccn1 | inactive |  |
| COC(=O)Cc1cc(=O)n(-c2nc3ccccc3[nH]2)[nH]1 | inconclusive: 39.8 µM [inhibitor, single point] |  |
| CCOC(=O)/C=C1\SCC(=O)N1CC(=O)NC(C)c1ccc(F)cc1 (configuration not stated) | inconclusive: 39.8 µM [inhibitor, single point] |  |
| COc1ccc(NC(=S)NCc2ccco2)cc1 | inactive |  |
| Cc1ccc(CN2CCSc3ccc(C(=O)N4CCN(c5ncccn5)CC4)cc32)cc1 | inconclusive: 31.6 µM [inhibitor, partial curve] |  |
